{
  "source": "paper PMC4336329",
  "about": "(PLoS ONE, 2015)",
  "note": "The whole screen tested about 310,000 compounds, of which about 2,200 (0.71%) showed an effect of 50% or more. The effect is printed as a negative number. This is one part of the list.",
  "data": [
    {"target": "human ether-à-go-go-related gene (hERG) potassium channel (human, UniProt Q12809)", "sequence (Q12809 whole entry, looked up)": "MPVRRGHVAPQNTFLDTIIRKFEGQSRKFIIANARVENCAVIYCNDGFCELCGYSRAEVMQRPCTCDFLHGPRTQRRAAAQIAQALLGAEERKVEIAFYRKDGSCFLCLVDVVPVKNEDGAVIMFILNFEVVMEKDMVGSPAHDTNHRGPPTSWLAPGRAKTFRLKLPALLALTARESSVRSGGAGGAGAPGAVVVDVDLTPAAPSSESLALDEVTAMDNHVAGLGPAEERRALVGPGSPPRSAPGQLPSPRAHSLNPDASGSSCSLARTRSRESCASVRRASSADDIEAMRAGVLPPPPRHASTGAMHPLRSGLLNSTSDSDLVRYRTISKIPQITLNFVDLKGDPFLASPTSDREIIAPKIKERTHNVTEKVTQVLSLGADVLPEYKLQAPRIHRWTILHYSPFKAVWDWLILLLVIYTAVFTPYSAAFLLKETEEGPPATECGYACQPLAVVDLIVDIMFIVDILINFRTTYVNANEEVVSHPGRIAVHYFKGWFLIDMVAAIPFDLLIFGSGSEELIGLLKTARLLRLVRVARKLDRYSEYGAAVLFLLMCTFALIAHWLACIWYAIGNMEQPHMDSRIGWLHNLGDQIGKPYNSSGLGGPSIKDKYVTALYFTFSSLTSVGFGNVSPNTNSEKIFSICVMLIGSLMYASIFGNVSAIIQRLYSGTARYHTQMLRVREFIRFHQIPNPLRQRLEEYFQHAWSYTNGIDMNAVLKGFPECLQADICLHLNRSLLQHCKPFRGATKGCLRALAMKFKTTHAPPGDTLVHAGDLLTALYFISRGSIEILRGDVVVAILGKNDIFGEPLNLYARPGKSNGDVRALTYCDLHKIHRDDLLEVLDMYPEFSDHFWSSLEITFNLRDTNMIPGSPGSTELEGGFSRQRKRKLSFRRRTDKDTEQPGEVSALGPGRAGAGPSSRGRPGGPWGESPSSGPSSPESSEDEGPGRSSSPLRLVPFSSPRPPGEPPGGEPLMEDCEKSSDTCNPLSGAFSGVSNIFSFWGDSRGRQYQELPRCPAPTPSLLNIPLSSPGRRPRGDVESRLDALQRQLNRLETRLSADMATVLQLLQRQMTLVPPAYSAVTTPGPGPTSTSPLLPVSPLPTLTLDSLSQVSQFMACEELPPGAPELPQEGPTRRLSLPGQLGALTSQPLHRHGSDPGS", "experiment": "primary screen, population patch clamp on CHO cells stably expressing hERG", "units": {"hERG current change (%, negative = inhibition) at 1uM": "%"}, "values": [
      {"smiles": "O=C(COC(=O)CNC(=O)c1ccccc1Cl)Nc1ncc(C(F)(F)F)cc1Cl", "hERG current change (%, negative = inhibition) at 1uM": 0.495},
      {"smiles": "O=C(NCc1cccnc1)C(=O)Nc1ccc2c(c1)OCO2", "hERG current change (%, negative = inhibition) at 1uM": 14},
      {"smiles": "O=C1C2C3C=CC(C3)C2C(=O)N1c1ccc2c(c1)CCC2", "note": "(centres unmarked)", "hERG current change (%, negative = inhibition) at 1uM": 5.44},
      {"smiles": "CC(=O)Nc1ccc(NC(=O)CSc2ncc(C(=O)Nc3ccc(F)cc3)c(=O)n2C)cc1", "hERG current change (%, negative = inhibition) at 1uM": -9.81},
      {"smiles": "Cc1nn(C)c(C)c1S(=O)(=O)N(CC(=O)NCCCN1CC(C)CC(C)C1)c1ccc(C(C)C)cc1", "note": "(centres unmarked)", "hERG current change (%, negative = inhibition) at 1uM": -43.5},
      {"smiles": "Cc1cc(C(=O)Nc2cccnc2)no1", "hERG current change (%, negative = inhibition) at 1uM": 9.73},
      {"smiles": "CC(C)(C)NC(=O)Cn1nnc(-c2ccc(Cl)cc2)n1", "hERG current change (%, negative = inhibition) at 1uM": 8.77},
      {"smiles": "CCOc1ccc2oc(C(=O)NC(C)(C)CC)c(C)c2c1", "hERG current change (%, negative = inhibition) at 1uM": 8.79},
      {"smiles": "COC(=O)Nc1ccc(S(=O)(=O)N2CCC(C(=O)N3CCC(C)CC3)CC2)cc1", "hERG current change (%, negative = inhibition) at 1uM": 18.4},
      {"smiles": "O=C(CF)NC(Nc1cccc2cccnc12)C(Cl)(Cl)Cl", "note": "(centres unmarked)", "hERG current change (%, negative = inhibition) at 1uM": 5.72},
      {"smiles": "CCCNC(=O)c1c(N)n(CC2CCCO2)c2nc3ccccc3nc12", "note": "(centres unmarked)", "hERG current change (%, negative = inhibition) at 1uM": 18.2},
      {"smiles": "CCOC(=O)N1CCN(C(=O)CSc2ncccn2)CC1", "hERG current change (%, negative = inhibition) at 1uM": 7.68},
      {"smiles": "O=C(Nc1ccccc1N1CCCC1)c1ccc(F)c(S(=O)(=O)N2CCOCC2)c1", "hERG current change (%, negative = inhibition) at 1uM": 7.15},
      {"smiles": "O=C(Nc1cccc(-c2nc3cc(Cl)ccc3o2)c1)C1CCCO1", "note": "(centres unmarked)", "hERG current change (%, negative = inhibition) at 1uM": 8.19},
      {"smiles": "CC1OC(C)(C)OC1C1CNc2nc(NC(=O)C(C)(C)C)[nH]c(=O)c2N1C(=O)c1cccnc1", "note": "(centres unmarked)", "hERG current change (%, negative = inhibition) at 1uM": 15.6},
      {"smiles": "O=C1c2cccc3c([N+](=O)[O-])ccc(c23)C(=O)N1CCc1ccccn1", "hERG current change (%, negative = inhibition) at 1uM": 5.62},
      {"smiles": "Oc1ccc(Oc2ccc3c(C(F)(F)F)cc(C(F)(F)F)nc3n2)cc1", "hERG current change (%, negative = inhibition) at 1uM": 6.47},
      {"smiles": "CC1CCCN(CCSc2ccc(Cl)cc2)C1.O=C(O)C(=O)O", "note": "(centres unmarked)", "hERG current change (%, negative = inhibition) at 1uM": 2.16},
      {"smiles": "CCCCCn1c(N2CCC(Cc3ccccc3)CC2)nc2c1c(=O)[nH]c(=O)n2C", "hERG current change (%, negative = inhibition) at 1uM": 11.2},
      {"smiles": "CCOCCCNC(=O)C(c1ccccc1)N(Cc1cccs1)C(=O)CNC(=O)c1ccccc1", "note": "(centres unmarked)", "hERG current change (%, negative = inhibition) at 1uM": 5.39},
      {"smiles": "CC(=O)Nc1c(O)nc(SC/C=C/CSc2nc(O)c(NC(C)=O)c(=O)[nH]2)[nH]c1=O", "hERG current change (%, negative = inhibition) at 1uM": 4.69},
      {"smiles": "CCCCOc1ccc(-c2nnc(N)s2)cc1", "hERG current change (%, negative = inhibition) at 1uM": 9.39},
      {"smiles": "Cc1cc(=O)oc2cc(OCC(=O)c3ccc4c(c3)NC(=O)CO4)ccc12", "hERG current change (%, negative = inhibition) at 1uM": 13.7},
      {"smiles": "Cc1ccc(N2C(=O)CC(Sc3ncn[nH]3)C2=O)cc1C", "note": "(centres unmarked)", "hERG current change (%, negative = inhibition) at 1uM": 11.4},
      {"smiles": "COc1cc(/C=C/C(=O)OC2CC3CCC2(C)C3(C)C)ccc1O", "note": "(centres unmarked)", "hERG current change (%, negative = inhibition) at 1uM": 10.8},
      {"smiles": "Cc1ccccc1C1(CCN2CCCCC2)CCOC(C)(C)C1.Cl", "note": "(centres unmarked)", "hERG current change (%, negative = inhibition) at 1uM": 13},
      {"smiles": "Cc1[nH]c2ccc(F)cc2c1CCN(Cc1ccncc1)C(=S)Nc1ccccc1", "hERG current change (%, negative = inhibition) at 1uM": -2.27},
      {"smiles": "Clc1ccc(C2=NNC(=NCc3ccccc3)SC2)cc1", "hERG current change (%, negative = inhibition) at 1uM": 4.07},
      {"smiles": "CC(=O)Nc1cccc(-c2nc3ccccc3o2)c1", "hERG current change (%, negative = inhibition) at 1uM": 18.9},
      {"smiles": "Cc1c(NC(=O)C2(c3ccc(Cl)cc3)CCCC2)c(=O)n(-c2ccccc2)n1C", "hERG current change (%, negative = inhibition) at 1uM": -18.6},
      {"smiles": "Cc1ccc(NC(=O)C(=O)NCc2ccncc2)cc1", "hERG current change (%, negative = inhibition) at 1uM": 16},
      {"smiles": "Cc1cc(C)nc(SCC(N)=O)n1", "hERG current change (%, negative = inhibition) at 1uM": 11.8},
      {"smiles": "OC(CN1CCOCC1)Cn1cnc2ccccc21", "note": "(centres unmarked)", "hERG current change (%, negative = inhibition) at 1uM": 15.4},
      {"smiles": "COc1ccc(-c2csc3ncnc(N4CCN(c5ccccc5OC)CC4)c23)cc1", "hERG current change (%, negative = inhibition) at 1uM": 9.85},
      {"smiles": "CCN1CCN(c2ccc(S(=O)(=O)N3CCCCC3)cc2NC(=O)Cc2ccc(Cl)c(Cl)c2)CC1", "hERG current change (%, negative = inhibition) at 1uM": -8.07},
      {"smiles": "CCOc1ccccc1Nc1ccc(C(=O)O)cc1NC(C)=O", "hERG current change (%, negative = inhibition) at 1uM": 20.2},
      {"smiles": "COC(=O)CSc1nnc(-c2ccc(S(=O)(=O)N3CCCCC3)cc2)o1", "hERG current change (%, negative = inhibition) at 1uM": 13.1},
      {"smiles": "Cc1cc2ncn(C3CC(=O)N(Cc4ccc(N5CCCC5=O)cc4)C3=O)c2cc1C", "note": "(centres unmarked)", "hERG current change (%, negative = inhibition) at 1uM": 0.881},
      {"smiles": "Cc1ccc(-c2n[nH]c3c2C(c2cccc(O)c2)N(c2ccc(C(=O)O)cc2)C3=O)cc1", "note": "(centres unmarked)", "hERG current change (%, negative = inhibition) at 1uM": 11.1},
      {"smiles": "Cn1c(N)c(C(=O)COC(=O)c2cccs2)c(=O)n(C)c1=O", "hERG current change (%, negative = inhibition) at 1uM": 5.16},
      {"smiles": "COc1ccc(NC(=O)N2CCN(c3cccc(C(F)(F)F)c3)CC2)cc1OC", "hERG current change (%, negative = inhibition) at 1uM": 8.5},
      {"smiles": "COC(=O)CSc1nc2ccc(NC(=O)CSc3nnnn3Cc3ccccc3)cc2s1", "hERG current change (%, negative = inhibition) at 1uM": 31.4},
      {"smiles": "CC(C)Cc1csc(NC(=O)c2ccc(Cl)cc2)c1C(=O)O", "hERG current change (%, negative = inhibition) at 1uM": 14.7},
      {"smiles": "CC1(c2cccc(Br)c2)NC(=O)N(CC(=O)N2CCN(C(=O)c3ccco3)CC2)C1=O", "note": "(centres unmarked)", "hERG current change (%, negative = inhibition) at 1uM": 12.6},
      {"smiles": "COc1ccc(N2CCN(CCC3Oc4cc([N+](=O)[O-])ccc4NC3=O)CC2)cc1", "note": "(centres unmarked)", "hERG current change (%, negative = inhibition) at 1uM": 5.36},
      {"smiles": "O=C(CCCSc1ccc(Cl)cc1)Nc1cc(S(=O)(=O)N2CCOCC2)ccc1O", "hERG current change (%, negative = inhibition) at 1uM": 15.1},
      {"smiles": "O=C(NC1CCCC1)c1sc(=S)n2c1[nH]c(=O)c1ccccc12", "hERG current change (%, negative = inhibition) at 1uM": 13.9},
      {"smiles": "COCCCNC(=O)C12CCC(C)(C(=O)C1)C2(C)C", "note": "(centres unmarked)", "hERG current change (%, negative = inhibition) at 1uM": 4.15},
      {"smiles": "COc1ccccc1N(CC(=O)NCCSC(C)(C)C)S(C)(=O)=O", "hERG current change (%, negative = inhibition) at 1uM": 8.11},
      {"smiles": "O=C1NN(c2ccc(Cl)c(Cl)c2)C(=O)/C1=C/c1ccc(-c2ccccc2C(=O)O)o1", "hERG current change (%, negative = inhibition) at 1uM": 13},
      {"smiles": "O=C(Nc1nccs1)C1CC(=O)N(c2ccccc2Cl)C1", "note": "(centres unmarked)", "hERG current change (%, negative = inhibition) at 1uM": 12.7},
      {"smiles": "CC(=O)Cc1ccccc1OCC(=O)O", "hERG current change (%, negative = inhibition) at 1uM": 18.9},
      {"smiles": "CCOc1ccccc1-c1cc(C(=O)N2CCOCC2)c2ccccc2n1", "hERG current change (%, negative = inhibition) at 1uM": 3.29},
      {"smiles": "NC(=O)c1c(NC(=O)c2ccccc2C(=O)O)sc2c1CCCC2", "hERG current change (%, negative = inhibition) at 1uM": 9.08},
      {"smiles": "Cn1ccc(C(=O)Nc2ccc(Br)cc2Br)n1", "hERG current change (%, negative = inhibition) at 1uM": -4.41},
      {"smiles": "CCOc1ccc(NC(=O)CN(C)C(=O)c2ccccc2Cc2ccccc2)cc1OCC", "hERG current change (%, negative = inhibition) at 1uM": 3.9}
    ]}
  ]
}
